According to PubChem BioAssay (NCI):
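Dose response: 5 concentrations. Exposure: 48 h. Format: 96-well plates. Endpoint: linear interpolation; highest concentration if not reached. GI50 = concentration required for 50% inhibition of growth. At the TGI there is no net growth.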

Tested on: NCI-H322M lung
Assay: NCI tumour cell line growth inhibition, 48 h

| Compound | TGI [µM] | GI50 [µM] |
| --- | --- | --- |
| COc1ccc(OC/C(N)=N/NC(=O)c2ccncc2)cc1 | > 100 | – |
| CCCCCCC1OC23OC1CCC2C(O)CCC3O (stereo not given) | > 100 | – |
| O=c1[nH]c2ccccc2c2oc3ccccc3c12 | > 100 | – |
| O=c1c(-c2ccccc2)c(SCCCN2CCCCC2)n(-c2ccccc2)c(=S)n1-c1ccccc1 | > 100 | – |
| C[C@H]1CCC/C=C/[C@@H]2C[C@H](OC(=O)CN(C)C)C[C@H]2[C@H](O)/C=C/C(=O)O1 | 4.22 | – |
| Nc1ccccc1C(=O)/C=C/c1ccccc1O | > 100 | – |
| COC(=O)/C(=N\N)C(C(=O)C(=O)Nc1cc(Cl)ccc1Cl)c1nc2ccc([N+](=O)[O-])cc2[nH]c1=O (stereo not given) | > 100 | – |
| Nc1nccc(NCC2(CO)CC(CCc3ccccc3)C2)n1 (stereo not given) | 55.5 | – |
| CC[C@]12C=CCN3CC[C@@]4(c5ccc(OC)cc5N(C)[C@H]4[C@@](O)(C(=O)OC)[C@@H]1OC(=O)CCCN1CCN(CCCC(=O)O[C@@H]4[C@]5(CC)C=CCN6CC[C@@]7(c8ccc(OC)cc8N(C)[C@H]7[C@@]4(O)C(=O)OC)[C@@H]65)CC1)[C@@H]32 | 3.05 | 1.51 |
| COC(=O)[C@@H]1Cc2ccc(OC)c(c2)OCCC(=O)N1 | > 100 | – |
| Cc1cc2nnn(C3CCCCO3)c2cc1C (stereo not given) | > 100 | – |
| CN1CCN(C(=O)/C=C/c2ccc([N+](=O)[O-])o2)CC1 | > 100 | 31.7 |
| COc1ccc(OC)c(/C=C2/C(=O)N=C(NC(C)=O)N2C)c1 | > 100 | – |
| FC(F)(F)c1cccc(CNC2CCN(CCc3ccccc3)CC2)c1 | > 100 | 80.8 |
| CC(=O)Oc1ccc(-c2nnc(-c3ccc(OC(C)=O)cc3)nn2)cc1 | > 100 | – |
| CCOC(=O)C#Cc1c(C(=O)OCC)nnn1[C@@H]1O[C@H](COC)[C@@H](OC)[C@H]1OC | 83.5 | 24.5 |
